# Where “and” joins values, the source holds several entries; their conditions need not be identical. Equal values may be shown once. The inconclusive results got no clear call from the source; some entries with a clear call stand among them for comparison. For some assays here: Potencies of inconclusive entries are doubtful fits and often do not repeat. Calls of active or inactive are those of the source. The call rests on the fitted dose curve; in most records, active means well fitted curve in the direction sought with a large enough effect; inconclusive means small, poorly fitted or top-dose-only effect, or another doubt; inactive means no such curve, though single readings can be large; an effect the other way counts as inactive or inconclusive.
# Key:
# [1] = qHTS for Inhibitors of Plasmodium falciparum (DD2) proliferation (AID 504314); further: potency means the concentration at half of the fitted maximal effect;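 on activity, negative = inhibition: parasite DNA measured by SYBR Green fluorescence after red cell lysis; plate controls were DMSO vehicle for no effect and artemisinin wells for full effect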; settings: P. falciparum Dd2 in erythrocytes, SYBR Green growth, 72 h; activity, negative = inhibition: at 6.11 µM (top of the series)
# Outline: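 Quantitative HTS growth inhibition: SYBR Green I binding to parasite DNA after 72 h drug exposure of infected erythrocytes (0.3% parasitemia, 2.5% hematocrit). Signals normalized per plate to inhibitor and vehicle wells.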
# [2] = qHTS for Inhibitors of Plasmodium falciparum (HB3) proliferation (AID 504318); further: nearly all actives have a fitted effect of over 60% in size; further: potency means the concentration at half of the fitted maximal effect;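 on activity change, negative = inhibition: 0% = DMSO vehicle and -100% = artemisinin control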; settings: P. falciparum HB3 in erythrocytes, SYBR Green DNA, 72 h; activity change, negative = inhibition: at 7.21 µM (top of the series)
# Outline: (§1)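 Erythrocytes infected with P. falciparum line (0.3% parasitemia, 2.5% hematocrit final) incubated with compounds 72 h at 37 °C, 5% CO2; SYBR Green lysis buffer added, fluorescence read next day. Normalized to 0.29 uM artemisinin and DMSO.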
# [3] = qHTS for Inhibitors of Plasmodium falciparum (7G8) proliferation (AID 504316); further: nearly all actives have a fitted effect of over 65% in size; further: potency means the concentration at half of the fitted maximal effect;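 on activity change, negative = inhibition: 0% = DMSO vehicle and -100% = 0.29 µM artemisinin full kill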; settings: P. falciparum 7G8 in erythrocytes, SYBR Green DNA, 72 h; activity change, negative = inhibition: at 6.7 µM (top of the series)
# Outline: as §1
# [4] = qHTS for Inhibitors of Plasmodium falciparum (CP250) proliferation (AID 504320); further: potency means the concentration at half of the fitted maximal effect;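 on activity change, negative = inhibition: plate controls were DMSO vehicle for no effect and 0.29 µM artemisinin control for full effect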; settings: P. falciparum CP250 in erythrocytes, SYBR Green DNA, 72 h; series mostly up to 6.7 µM
# Outline: as §1
# [5] = target: Cytochrome P450 2C9 (Homo sapiens) (UniProt P11712); experiment: qHTS Assay for Inhibitors and Substrates of Cytochrome P450 2C9 (AID 883); settings: recombinant CYP2C9, luciferin-H luminescence, 60 min; activity change, negative = inhibition: at 57.1 µM (top of the series); further: on the % scale 0 is the no-effect control and ±100 the full control effect; nearly all actives have a fitted effect of over 60% in size
# Outline: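 A luminogenic readout tracked human CYP2C9 (10nM) converting deoxyluciferin (100uM, at KM) in 25mM KPO4 during 60 min at 37C with regenerated NADPH. Values normalized to 57uM sulphaphenazole as complete inhibition.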
# Tags describe the fitted curve by direction and shape.
# Sequence of UniProt P11712 (P11712 whole entry, looked up): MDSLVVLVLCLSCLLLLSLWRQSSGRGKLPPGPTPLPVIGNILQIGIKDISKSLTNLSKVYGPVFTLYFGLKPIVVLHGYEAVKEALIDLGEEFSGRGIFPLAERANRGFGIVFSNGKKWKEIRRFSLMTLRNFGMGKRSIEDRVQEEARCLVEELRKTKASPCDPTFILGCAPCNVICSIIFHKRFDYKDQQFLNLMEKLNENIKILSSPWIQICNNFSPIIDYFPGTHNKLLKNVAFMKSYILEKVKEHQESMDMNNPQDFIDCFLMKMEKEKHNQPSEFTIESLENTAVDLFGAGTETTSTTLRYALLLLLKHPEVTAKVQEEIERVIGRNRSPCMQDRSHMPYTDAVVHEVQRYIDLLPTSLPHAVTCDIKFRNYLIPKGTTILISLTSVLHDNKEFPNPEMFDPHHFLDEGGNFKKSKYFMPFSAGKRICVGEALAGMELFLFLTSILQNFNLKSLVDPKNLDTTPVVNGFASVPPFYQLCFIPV
smiles,measurement,setting,value
COC(=O)N1[C@H]2CC[C@@]3(C)CC(=O)C[C@]1(C)C3c1ccccc12,Potency,[1],inactive
same,Potency,[2],"inconclusive: 0.0426 µM [inhibitor, partial curve, poor fit]"
CCCCc1nc2c(c3c1C[C@H](C)OC3)CN(C(=O)c1ccco1)CC2,Potency,[1],"inconclusive: 2.12 µM [inhibitor, partial curve, poor fit]"
same,Potency,[3],"inconclusive: 1.69 µM [inhibitor, single point]"
same,Potency,[4],"inconclusive: 1.2 µM [inhibitor, partial curve] and inconclusive: 1.9 µM [inhibitor, partial curve, poor fit]"
C=C(C(=O)C(C)(C)O)C(O)c1ccc([N+](=O)[O-])cc1 (stereo not given),Potency,[1],"inconclusive: 4.24 µM [inhibitor, single point]"
same,Potency,[3],"inconclusive: 1.69 µM [inhibitor, partial curve]"
same,Potency,[2],"inconclusive: 2.13 µM [inhibitor, partial curve]"
same,Potency,[4],inactive
COc1ccc([C@]23Cc4cc(OC)c(OC)cc4[C@H](O2)c2c(cc(C)oc2=O)O3)cc1,Potency,[1],"inconclusive: 2.38 µM [inhibitor, partial curve, poor fit]"
same,Potency,[3],"inconclusive: 4.26 µM [inhibitor, single point]"
same,Potency,[4],inactive
COC(=O)C1=C(C(=O)OC)[C@@H]2Nc3ccccc3[C@@]23C[C@@H](C(=O)OC)N(C(=O)c2ccco2)C3=N1,"activity, negative = inhibition",[1],inactive: -2.55% [at 1.12 µM]
same,Potency,[3],inactive
same,Potency,[2],"inconclusive: 0.12 µM [inhibitor, single point]"
same,Potency,[4],inactive
CCCCc1nc2c(c3c1C[C@H](C)OC3)CN(S(=O)(=O)c1ccc(Cl)c3nonc13)CC2,"activity, negative = inhibition",[1],inactive: -5.37% [at 1.12 µM]
same,Potency,[2],"inconclusive: 2.13 µM [inhibitor, partial curve, poor fit]"
COc1cc(CCN2C(=O)NC(c3cccc(C(F)(F)F)c3)C(C(C)=O)=C2C)cc(OC)c1OC (stereo not given),Potency,[1],"inconclusive: 2.67 µM [inhibitor, partial curve, poor fit]"
same,Potency,[3],"inconclusive: 1.51 µM [inhibitor, partial curve]"
same,Potency,[2],"inconclusive: 2.94 µM [inhibitor, partial curve]"
same,Potency,[4],inactive
C[C@@H]1C=CCCO[C@]12C(=O)N(Cc1ccccc1C(F)(F)F)c1ccccc12,Potency,[1],inactive
same,Potency,[2],inactive
C[C@H]1CC[C@H]2C(=O)N(Cc3ccccc3)C[C@@H](O)CN2[C@H]1c1cccc(Br)c1,Potency,[1],"inconclusive: 1.34 µM [inhibitor, single point]"
same,Potency,[2],"inconclusive: 1.51 µM [inhibitor, partial curve]"
c1ccc(-c2nc(-c3ccccc3)c(Nc3ccc4ccccc4c3)o2)cc1,Potency,[1],inactive
same,Potency,[2],inactive
COC(=O)[C@@H]1CC[C@H](C)[C@@H](c2ccc(C)cc2)N1C(=O)c1ccc(C=NO[C@@H](C)c2cn([C@H](CO)Cc3ccccc3)nn2)cc1,Potency,[1],"inconclusive: 4.24 µM [inhibitor, single point]"
same,Potency,[3],"inconclusive: 1.9 µM [inhibitor, single point]"
same,Potency,[2],"inconclusive: 2.94 µM [inhibitor, single point]"
same,Potency,[4],"inconclusive: 1.9 µM [inhibitor, partial curve, poor fit]"
COC(=O)c1ccc(CN2C(=O)[C@]3(OCCC=C[C@@H]3C)c3cc(OC)ccc32)cc1,Potency,[1],"inconclusive: 4.24 µM [inhibitor, single point]"
same,Potency,[2],"inconclusive: 4.26 µM [inhibitor, single point]"
C=C[C@@]1(C)CCC=C2C(=O)CCC[C@H]21,Potency,[1],inactive
same,Potency,[2],inactive
COC1=C[C@H](C(=O)N[C@H]2CCCC[C@H]2NC(C)=O)[C@H](C)[C@@H](c2ccccc2)CC1=O,Potency,[1],"inconclusive: 1.69 µM [inhibitor, single point]"
same,Potency,[2],"inconclusive: 1.51 µM [inhibitor, partial curve, poor fit]"
COc1cccc2c1[C@H](C=Cc1ccccc1)[C@@H]([C@H](O)CN=[N+]=[N-])OC2,Potency,[1],"inconclusive: 4.24 µM [inhibitor, single point]"
same,Potency,[3],"inconclusive: 1.07 µM [inhibitor, single point]"
same,Potency,[2],"inconclusive: 1.51 µM [inhibitor, partial curve, poor fit]"
same,Potency,[4],inactive
COC(=O)N[C@H](CC(C)=O)c1ccc(F)cc1,Potency,[1],inactive
same,Potency,[2],inactive
COC(=O)CCC(=O)OC1(C)C(=O)C=C2C=C(C3CC3)N(C3CC3)C=C2C1=O (stereo not given),"activity, negative = inhibition",[1],inactive: 1.21% [at 1.12 µM]
same,Potency,[3],"inconclusive: 2.13 µM [inhibitor, partial curve, poor fit]"
same,Potency,[2],inactive
same,Potency,[4],"inconclusive: 2.13 µM [inhibitor, single point]"
CC1(OC(=O)CCc2ccccc2)C(=O)C=C2C=C(c3ccc(C#N)cc3)N(C3CC3)C=C2C1=O (stereo not given),"activity, negative = inhibition",[1],inactive: 0.813% [at 1.12 µM]
same,Potency,[2],inactive
CCCCCCC1=Cc2cc(OC)c(OC)cc2C(C(C(C)=O)C(=O)OCC)O1 (stereo not given),"activity change, negative = inhibition",[5],inactive: 25.3% [at 11.4 µM]
same,Potency,[1],inactive
same,Potency,[3],"inconclusive: 1.9 µM [inhibitor, single point]"
same,Potency,[2],"inconclusive: 4.26 µM [inhibitor, single point]"
C[C@@H](c1ccccc1)N1C(=O)[C@@H]2[C@H]3[C@H](O)[C@H](O)CC(=NOC[C@@H](O)COCc4ccco4)[C@H]3CC[C@H]2C1=O,Potency,[1],"inconclusive: 4.24 µM [inhibitor, partial curve, poor fit]"
same,Potency,[3],"inconclusive: 1.51 µM [inhibitor, single point]"
same,Potency,[4],inactive
CCCCCCCc1cc2ccccc2c2c(C(=O)OC)cc(C(=O)OC)n12,Potency,[1],inactive
same,Potency,[2],inactive
COC(=O)[C@@H]1CC[C@H](C)[C@@H](c2ccc(C)cc2)N1C(=O)c1ccc(C=NOC[C@@H](O)COCc2ccco2)cc1,Potency,[1],"inconclusive: 2.12 µM [inhibitor, single point]"
same,Potency,[3],"inconclusive: 1.69 µM [inhibitor, partial curve]"
same,Potency,[2],"inconclusive: 4.15 µM [inhibitor, single point]"
same,Potency,[4],"inconclusive: 2.13 µM [inhibitor, single point]"
C=CCNC(=O)[C@H]1C=C(OC)C(=O)C[C@H]2c3ccccc3C[C@]12C,Potency,[1],inactive
same,Potency,[3],inactive
same,Potency,[2],"inconclusive: 4.26 µM [inhibitor, single point]"
same,Potency,[4],inactive
COc1ccc(C2=CC3=C(Br)C(=O)C(C)(OC(=O)c4ccc(Cl)nc4)C(=O)C3=CO2)cc1 (stereo not given),Potency,[1],inactive
same,Potency,[2],inactive
CC[C@@H](c1ccccc1)n1c(=O)n2n(c1=O)[C@H]1[C@H](O)[C@@H]3O[C@H]3C(=NOCc3ccccc3)[C@H]1CC2,Potency,[1],inactive
same,Potency,[2],inactive
same,Potency,[4],inactive
C[C@@H]1C=CCCO[C@]12C(=O)N(Cc1ccc(Br)cc1)c1ccccc12,Potency,[1],inactive
same,Potency,[2],"inconclusive: 1.9 µM [inhibitor, single point]"
COC(=O)C1=C(C)N(Cc2ccco2)C(=O)NC1c1ccc(Br)cc1 (stereo not given),Potency,[1],inactive
same,Potency,[2],"inconclusive: 4.26 µM [inhibitor, single point]"
COc1ccc(NC(=O)N2CCc3nc(-c4ccc(OC)cc4C)c4c(c3C2)CO[C@@H](c2ccccc2)C4)cc1,Potency,[1],inactive
same,Potency,[2],"inconclusive: 2.39 µM [inhibitor, single point] and inconclusive: 4.78 µM [inhibitor, single point]"
CCCNC(=O)OC[C@H]1O[C@H](CCON=C(C)CCC(=O)OC[C@H]2O[C@H](C#Cc3ccccc3)C=C[C@H]2Oc2ccc(C)cc2)C=C[C@H]1Oc1ccc(OC)cc1,Potency,[1],"inconclusive: 4.24 µM [inhibitor, single point]"
same,Potency,[2],"inconclusive: 3.98 µM [inhibitor, single point]"
COC(=O)C1=C(C(=O)OC)[C@@H]2N(Cc3ccccc3)c3ccccc3[C@@]23C[C@@H](C(=O)OC)N(C(=O)Nc2ccc(C(F)(F)F)cc2)C3=N1,Potency,[1],inactive
same,Potency,[2],"inconclusive: 0.0023 µM [activator, full curve, poor fit]"
COC(=O)C(C(C)=O)C(=O)C(Cc1ccccc1)NC(=O)OCc1ccccc1 (stereo not given),Potency,[1],inactive
same,Potency,[2],inactive
COc1ccc(-c2nc3c(c4c2C[C@H](c2ccccc2)OC4)CN(C(=O)Nc2cccc(C#N)c2)CC3)c(C)c1,Potency,[1],"inconclusive: 3 µM [inhibitor, partial curve, poor fit]"
same,Potency,[2],inactive
COC(=O)CCCC1=CC2=C(c3ccccc3)C(=O)C(C)(OC(=O)C3CCCC3)C(=O)C2=CN1Cc1ccc2c(c1)OCO2 (stereo not given),Potency,[1],"inconclusive: 3.36 µM [inhibitor, single point]"
same,Potency,[2],"inconclusive: 1.9 µM [inhibitor, single point] and inconclusive: 3.79 µM [inhibitor, single point]"
same,Potency,[4],inactive
CC(=O)OC[C@H]1O[C@@H](ON=C2C[C@@H](O)[C@@H](O)[C@@H]3[C@H]4C(=O)N(C5CCCCC5)C(=O)[C@@H]4CC[C@@H]23)[C@H](OC(C)=O)[C@@H](OC(C)=O)[C@H]1OC(C)=O,Potency,[1],inactive
same,Potency,[2],"inconclusive: 0.329 µM [inhibitor, partial curve]"
C=CCN1C(=O)[C@]2(O[C@H](C)CC3=CCCC32)c2c(Br)cccc21 (stereo not given in full),Potency,[1],"inconclusive: 1.5 µM [inhibitor, partial curve, poor fit]"
same,Potency,[2],"inconclusive: 0.379 µM [inhibitor, full curve, poor fit]"
C[C@@H]1C[C@](C)(C(=O)c2ccco2)C=C1c1ccco1,Potency,[1],"inconclusive: 4.24 µM [inhibitor, single point]"
same,Potency,[2],inactive

# Source: PubChem BioAssay (NCATS)
